For the assay, the system named is DMS 114 tumor spheroids, viability % test/control. The experiment in a line: Anticancer human tumor DMS 114 cell line growth inhibition.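 Also: luminescence used as a proxy for viable cells; spheroids exposed to compounds for 7 days before read-out; 100% = DMSO vehicle control viability.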 As to conditions: stronger effect = lower value, spheroids with HUVEC and MSC. The source says: Multicellular complex tumor spheroid response to DNA repair inhibitors in combination with DNA-damaging drugs
This study explores the anticancer activities of DNA-damaging drugs and inhibitors of DNA damage repair, both as single agents and in combinations. Complex tumor spheroids comprised of malignant cells, endothelial cells and mesenchymal stem cells served as an in vitro model for human solid tumors. This model system incorporates physiologically relevant features and patient-derived or established malignant cell lines with clinically relevant genetic alterations from many tumor types. Twenty-six patient-derived or established malignant cell lines were evaluated representing sarcoma, melanoma, small cell lung cancer (SCLC), non-small cell lung cancer (NSCLC), as well as bladder, ovarian and pancreatic cancers. The concentration ranges selected for each drug and investigational agent were based upon clinically achievable concentrations if the clinical Cmax of the agent was known.
Compounds. […] If the clinical Cmax for an agent had not been determined, the highest concentration tested was 10 microM. […]

Not every entry of the source has a single result; some have several. This list holds those alone. There may be further records. Values that stand side by side are repeats across runs, samples, wells, individuals or studies.

One may read the viability, T/C as the ratio of treated to control.

On to `Cn1nnc2c(C(N)=O)ncn2c1=O`, for which, for the setting “compound alone 100 µM”, the viability, T/C is on record as 117, 97.3, 93.2, 108, 106, 91.9, 99.7, 96.6, 92.8, 94.4%.
For `CC[C@@]1(O)C(=O)OCc2c1cc1n(c2=O)Cc2cc3c(CN(C)C)c(O)ccc3nc2-1`, the viability, T/C (compound alone 0.00949 µM) was 98.5, 90.3, 109, 93.3, 93, 85.2, 90.5, 92.7, 90.4, 80.9%.

The values are drawn from PubChem BioAssay AID1845202 (Molecular Pharmacology Branch, DTP, NCI, 2023).
